pIC50: −log10 of the molar value. IC50 is the fitted dose that halves viability relative to control wells, and lower means more sensitive; a limit (>, <) means that the fit lies beyond the doses tested. AUC is the area under the same curve over the 256-fold range up to the top dose, as a fraction; values near 1 show little effect. For some assays here: The top dose, if marked as inferred, is not printed in the source and was worked back from the curve model.
How the values were obtained:
Assay in all cases: Viability of human cancer cell lines after 72 h of drug (GDSC screen)
XMD15-27 = compound: C=CC(=O)Nc1ccc(C(=O)c2sc(Nc3ccc(N4CCN(C)CC4)cc3OC)nc2N)cc1 [XMD15-27]; conditions: top dose 10.24 µM; top dose inferred
Experimental: (§1)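 Human cancer cell lines in 384-well plates, medium with 10% serum, drug for 72 h over a 256-fold dose range (nine 2-fold or five 4-fold steps up to the top dose). Adherent lines were fixed and stained with the nucleic acid dye Syto60, suspension lines read with resazurin; signal relative to control wells, capped at 0 and 100%. One two-parameter sigmoid per drug and line, fitted in a mixed model over all curves with the slope shared within a line.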

SL 0101-1 = compound: CC(=O)O[C@@H]1[C@@H](OC(C)=O)[C@@H](O)[C@H](Oc2c(-c3ccc(O)cc3)oc3cc(O)cc(O)c3c2=O)O[C@H]1C [SL 0101-1]; conditions: top dose 10 µM; top dose inferred
Experimental: as §1

Temsirolimus = compound: CO[C@H]1C[C@@H]2CC[C@@H](C)[C@@](O)(O2)C(=O)C(=O)N2CCCC[C@H]2C(=O)O[C@H]([C@H](C)C[C@@H]2CC[C@@H](OC(=O)C(C)(CO)CO)[C@H](OC)C2)CC(=O)[C@H](C)/C=C(\C)[C@@H](O)[C@@H](OC)C(=O)[C@H](C)C[C@H](C)/C=C/C=C/C=C/1C [Temsirolimus]; conditions: top dose 0.2 µM
Experimental: as §1

Row | Cell Line | AUC (XMD15-27) | pIC50 (XMD15-27) | AUC (SL 0101-1) | pIC50 (SL 0101-1) | AUC (Temsirolimus) | pIC50 (Temsirolimus)
1 | NCI-H2030 (lung adenocarcinoma, adherent) | 0.962 | < 4.99 | 0.98 | < 5.00 | – | –
2 | MDA-MB-468 (breast, adherent) | 0.979 | < 4.99 | 0.977 | < 5.00 | – | –
3 | LB771-HNC (head and neck, adherent) | 0.982 | < 4.99 | 0.978 | < 5.00 | – | –
4 | SW900 (lung squamous cell carcinoma, adherent) | 0.985 | < 4.99 | 0.945 | < 5.00 | – | –
5 | LOUCY (T-cell lymphoblastic leukaemia, suspension) | 0.98 | < 4.99 | – | – | 0.85 | 6.95
6 | SNU-182 (liver, adherent) | 0.986 | < 4.99 | – | – | 0.52 | 7.85
7 | SK-MEL-24 (melanoma, adherent) | 0.983 | < 4.99 | – | – | 0.819 | 6.84
8 | LOXIMVI (melanoma, semi-adherent) | 0.99 | < 4.99 | 0.989 | < 5.00 | – | –
9 | HCC1806 (breast, adherent) | 0.98 | < 4.99 | 0.947 | < 5.00 | – | –
10 | KYSE-510 (oesophagus, adherent) | 0.992 | < 4.99 | 0.96 | < 5.00 | – | –
11 | A172 (glioma, adherent) | 0.983 | < 4.99 | 0.987 | < 5.00 | – | –
12 | LU-65 (large cell lung carcinoma, suspension) | 0.983 | < 4.99 | 0.986 | < 5.00 | – | –
13 | BE-13 (lymphoblastic leukaemia, suspension) | 0.967 | < 4.99 | – | – | 0.363 | 8.27
14 | SK-LU-1 (lung adenocarcinoma, adherent) | 0.975 | < 4.99 | 0.877 | < 5.00 | – | –
15 | K-562 (chronic myeloid leukaemia, suspension) | 0.981 | < 4.99 | 0.983 | < 5.00 | – | –
16 | PA-1 (ovary, adherent) | 0.932 | < 4.99 | 0.979 | < 5.00 | – | –
17 | huH-1 (liver, adherent) | 0.984 | < 4.99 | 0.983 | < 5.00 | – | –
18 | MDA-MB-157 (breast, adherent) | 0.988 | < 4.99 | 0.937 | < 5.00 | – | –
19 | RS4-11 (leukaemia, suspension) | 0.948 | < 4.99 | 0.984 | < 5.00 | – | –

Row | Cell Line | AUC (XMD15-27) | pIC50 (XMD15-27) | AUC (SL 0101-1) | pIC50 (SL 0101-1) | AUC (Temsirolimus) | pIC50 (Temsirolimus)
20 | RERF-GC-1B (stomach, adherent) | 0.951 | < 4.99 | 0.985 | < 5.00 | – | –
21 | OSC-19 (head and neck, adherent) | 0.987 | < 4.99 | 0.987 | < 5.00 | – | –
22 | BxPC-3 (pancreas, adherent) | 0.982 | < 4.99 | 0.979 | < 5.00 | – | –
23 | TE-10 (oesophagus, adherent) | 0.988 | < 4.99 | 0.978 | < 5.00 | – | –
24 | TC-71 (Ewing sarcoma, adherent) | 0.992 | < 4.99 | 0.985 | < 5.00 | – | –
25 | OAW-28 (ovary, adherent) | 0.983 | < 4.99 | 0.944 | < 5.00 | – | –
26 | CAL-62 (thyroid, adherent) | 0.987 | < 4.99 | 0.967 | < 5.00 | – | –
27 | KG-1 (acute myeloid leukaemia, suspension) | 0.762 | 5.48 | 0.99 | < 5.00 | – | –
28 | SCC-15 (head and neck, adherent) | 0.98 | < 4.99 | 0.943 | < 5.00 | – | –
29 | TCCSUP (bladder, adherent) | 0.984 | < 4.99 | 0.954 | < 5.00 | – | –
30 | NCI-H1963 (small cell lung carcinoma, suspension) | – | – | – | – | 0.974 | < 6.70
31 | NCI-H460 (large cell lung carcinoma, adherent) | 0.99 | < 4.99 | 0.959 | < 5.00 | – | –
32 | A673 (rhabdomyosarcoma, adherent) | 0.988 | < 4.99 | 0.974 | < 5.00 | – | –
33 | SU-DHL-10 (B-cell lymphoma, suspension) | 0.997 | < 4.99 | 0.998 | < 5.00 | – | –
34 | SK-CO-1 (large intestine, adherent) | 0.989 | < 4.99 | 0.989 | < 5.00 | – | –
35 | MDA-MB-231 (breast, adherent) | 0.986 | < 4.99 | 0.982 | < 5.00 | – | –
36 | AGS (stomach, adherent) | 0.99 | < 4.99 | 0.989 | < 5.00 | – | –
37 | MZ7-mel (melanoma, adherent) | 0.983 | < 4.99 | 0.976 | < 5.00 | – | –

Source: the supplement of paper PMC4967469
